Measurements: article PMC10320511
Changes are numbered by the printed parent chain. Results are given in words; binding and its absence hold for the method and conditions named. Binding seen in cells or lysates may run through a third protein. Some binding calls cover weakened binding; strength is not graded here. Tags and fused reporters may be left off the sequences shown.

Chains of the proteins cited; added tags and fusions are not shown.
UniProt Q01371: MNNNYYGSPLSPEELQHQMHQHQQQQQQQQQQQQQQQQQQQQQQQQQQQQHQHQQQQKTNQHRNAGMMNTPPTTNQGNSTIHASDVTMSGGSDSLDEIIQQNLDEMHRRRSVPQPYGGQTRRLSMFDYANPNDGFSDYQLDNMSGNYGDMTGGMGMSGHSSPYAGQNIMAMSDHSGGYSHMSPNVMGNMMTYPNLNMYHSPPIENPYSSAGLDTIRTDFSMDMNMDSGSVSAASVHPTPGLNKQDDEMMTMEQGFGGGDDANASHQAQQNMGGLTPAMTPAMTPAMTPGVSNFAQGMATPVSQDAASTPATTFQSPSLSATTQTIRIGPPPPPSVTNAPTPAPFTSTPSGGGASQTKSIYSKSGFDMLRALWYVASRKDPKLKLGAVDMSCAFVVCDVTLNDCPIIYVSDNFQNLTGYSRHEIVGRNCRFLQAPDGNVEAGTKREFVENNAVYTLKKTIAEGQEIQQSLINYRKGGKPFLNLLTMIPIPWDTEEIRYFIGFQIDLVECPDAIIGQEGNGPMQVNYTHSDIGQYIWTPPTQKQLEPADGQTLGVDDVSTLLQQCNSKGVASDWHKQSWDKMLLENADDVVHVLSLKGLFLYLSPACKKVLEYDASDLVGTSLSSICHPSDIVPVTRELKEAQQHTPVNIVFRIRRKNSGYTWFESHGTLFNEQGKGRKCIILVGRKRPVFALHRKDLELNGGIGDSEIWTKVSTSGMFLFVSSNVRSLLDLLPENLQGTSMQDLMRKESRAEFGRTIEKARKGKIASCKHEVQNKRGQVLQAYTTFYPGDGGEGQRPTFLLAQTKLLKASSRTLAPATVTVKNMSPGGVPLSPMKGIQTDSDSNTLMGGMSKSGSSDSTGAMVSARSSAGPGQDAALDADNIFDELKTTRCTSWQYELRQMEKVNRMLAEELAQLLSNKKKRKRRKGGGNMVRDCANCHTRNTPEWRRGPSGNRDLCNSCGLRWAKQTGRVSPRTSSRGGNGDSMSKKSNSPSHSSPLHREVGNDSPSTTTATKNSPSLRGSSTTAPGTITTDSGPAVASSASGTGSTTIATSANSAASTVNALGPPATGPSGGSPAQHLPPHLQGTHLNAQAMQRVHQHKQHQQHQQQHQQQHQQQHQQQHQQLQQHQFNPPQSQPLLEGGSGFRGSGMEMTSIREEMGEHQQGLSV

How the values were obtained:
Experiment in all cases: co-IP; V5H6-tagged FRQ (wild type or mutant) pulled down with V5 agarose from Neurospora lysate (cultures in the light, 25 °C); 50 mM Hepes pH 7.4, 137 mM NaCl, 10% glycerol, 0.4% NP-40; 4 °C, 2 h; Western blot with FRQ, FRH, WC-1 and WC-2 antibodies
[1] = target: T1, FRQ 311–628, V5H6-tagged (Neurospora crassa) (UniProt P19970)
T1 sequence: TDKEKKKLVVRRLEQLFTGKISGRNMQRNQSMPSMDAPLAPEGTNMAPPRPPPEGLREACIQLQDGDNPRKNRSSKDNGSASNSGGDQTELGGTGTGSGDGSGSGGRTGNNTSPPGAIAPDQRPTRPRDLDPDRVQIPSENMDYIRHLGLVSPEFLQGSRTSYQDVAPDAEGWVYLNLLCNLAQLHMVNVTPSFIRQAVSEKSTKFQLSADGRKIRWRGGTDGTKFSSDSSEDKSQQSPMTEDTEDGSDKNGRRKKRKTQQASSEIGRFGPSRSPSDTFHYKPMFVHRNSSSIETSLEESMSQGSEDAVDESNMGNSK

[2] = target: T2, FRQ D862A, D866A, D867A, D869A, D870A, V5H6-tagged (Neurospora crassa) (UniProt P19970)
T2 sequence: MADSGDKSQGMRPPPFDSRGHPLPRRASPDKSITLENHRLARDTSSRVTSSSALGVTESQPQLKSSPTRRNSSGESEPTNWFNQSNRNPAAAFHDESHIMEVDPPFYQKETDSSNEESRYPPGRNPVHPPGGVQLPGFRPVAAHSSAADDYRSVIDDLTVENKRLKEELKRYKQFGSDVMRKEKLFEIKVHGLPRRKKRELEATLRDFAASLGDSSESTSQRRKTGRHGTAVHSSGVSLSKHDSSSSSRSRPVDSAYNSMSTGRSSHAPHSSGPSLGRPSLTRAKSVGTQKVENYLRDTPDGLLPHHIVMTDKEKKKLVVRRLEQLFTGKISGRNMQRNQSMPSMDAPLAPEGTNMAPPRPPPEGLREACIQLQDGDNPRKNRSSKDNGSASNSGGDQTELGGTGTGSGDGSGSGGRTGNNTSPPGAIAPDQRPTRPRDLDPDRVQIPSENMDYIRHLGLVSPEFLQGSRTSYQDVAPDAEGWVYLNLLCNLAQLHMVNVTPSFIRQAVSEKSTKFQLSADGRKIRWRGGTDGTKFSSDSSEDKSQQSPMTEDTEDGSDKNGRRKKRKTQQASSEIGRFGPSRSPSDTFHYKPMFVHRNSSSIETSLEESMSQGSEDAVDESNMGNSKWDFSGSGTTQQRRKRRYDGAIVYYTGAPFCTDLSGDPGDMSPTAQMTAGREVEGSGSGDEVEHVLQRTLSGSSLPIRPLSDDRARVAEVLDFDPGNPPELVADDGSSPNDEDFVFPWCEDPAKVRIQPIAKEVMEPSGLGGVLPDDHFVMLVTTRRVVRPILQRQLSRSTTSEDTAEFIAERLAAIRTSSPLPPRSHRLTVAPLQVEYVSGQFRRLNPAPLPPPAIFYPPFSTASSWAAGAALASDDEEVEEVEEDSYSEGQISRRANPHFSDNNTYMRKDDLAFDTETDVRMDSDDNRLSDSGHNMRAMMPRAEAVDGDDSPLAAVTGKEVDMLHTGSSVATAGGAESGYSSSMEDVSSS

[3] = target: T3, FRQ E835D, V5H6-tagged (Neurospora crassa) (UniProt P19970)
T3 sequence: T2 sequence with E835D, A862D, A866D, A867D, A869D, A870D

binding [1]: no binding
binding [2]: binds weakly
binding [3]: binds
Substance: White Collar-1 (WC-1) (from UniProt Q01371 1-1167)
